From the supplement of paper PMC8285479
Where a name gives a salt, the structure may show the parent alone. ± gives the standard deviation of the averaged measurements. Whole data set: some 1,900 compounds, median “normalised cell viability (NPI; 0 = phenylarsine oxide control, 1 = DMSO control)” near 1, cut for the lowest 2% near 0.039. The list shows a part of the results.

Tested on: NCI-H1944
Experiment: normalised cell viability (NPI; 0 = phenylarsine oxide control, 1 = DMSO control) (fraction of DMSO control); NCI-H1944 is a non-small cell lung cancer line; higher = more viable cells (less compound toxicity)
Settings: 6 days
[1] = glucocorticoid arm: hydrocortisone 2.75 uM co-treatment, compound 1 µM
[2] = glucocorticoid arm: hydrocortisone 2.75 uM co-treatment, compound 5 µM
[3] = glucocorticoid arm: hydrocortisone 2.75 uM pre-treated 2 days and continued, compound 1 µM
[4] = glucocorticoid arm: hydrocortisone 2.75 uM pre-treated 2 days and continued, compound 5 µM
[5] = glucocorticoid arm: vehicle, compound 1 µM
[6] = glucocorticoid arm: vehicle, compound 5 µM
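Further: CTB read-out in 384-well plates, mean of triplicate wells, normalised per plate against 1 µM phenylarsine oxide and 0.1% DMSO, compounds added 24 h after seeding.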

SMILES | normalised cell viability [1] | normalised cell viability [2] | normalised cell viability [3] | normalised cell viability [4] | normalised cell viability [5] | normalised cell viability [6]
S=P(N1CC1)(N1CC1)N1CC1 [Thiotepa] | 1.01 ± 0.018 | 1.01 ± 0.037 | 1.01 ± 0.011 | 1.027 ± 0.0058 | 0.996 ± 0.0035 | 0.48 ± 0.032
COc1cc(N2CCC(N3CCN(C)CC3)CC2)ccc1Nc1ncc(Cl)c(Nc2ccccc2S(=O)(=O)C(C)C)n1 | 0.581 ± 0.031 | 0.419 ± 0.031 | 0.667 ± 0.027 | 0.559 ± 0.15 | 0.9333 ± 0.0085 | 0.204 ± 0.014
O=C(NCC1CCCCN1)c1cc(OCC(F)(F)F)ccc1OCC(F)(F)F (stereo unspecified) [Flecainide acetate salt] | 1.001 ± 0.009 | 1.006 ± 0.0075 | 1.006 ± 0.0063 | 1.02 ± 0.011 | 0.999 ± 0.01 | 1.002 ± 0.0074
CC(C)c1nc(CN(C)C(=O)N[C@H](C(=O)N[C@@H](Cc2ccccc2)C[C@H](O)[C@H](Cc2ccccc2)NC(=O)OCc2cncs2)C(C)C)cs1 [Ritonavir] | 0.978 ± 0.018 | 1.04 ± 0.015 | 1.005 ± 0.0087 | 1.03 | 1.003 ± 0.0061 | 1.007 ± 0.0058
CCCOC(=O)c1c(-c2ccccc2)nc(CC)c(C(=O)SCC)c1CCC | 1.007 ± 0.0058 | 1.02 ± 0.033 | 1.01 ± 0.018 | 1.05 ± 0.078 | 1.001 ± 0.0085 | 1 ± 0.014
COc1ccccc1OCCNCC(O)COc1cccc2[nH]c3ccccc3c12 (stereo unspecified) [Carvedilol] | 1.023 ± 0.0058 | 1.047 ± 0.0058 | 1.037 ± 0.0058 | 1.03 ± 0.025 | 1.01 ± 0.011 | 1.002 ± 0.0076
Nc1cccc(-c2cc3c(Oc4cccc(O)c4)ncnc3[nH]2)c1 | 0.946 ± 0.004 | 0.728 ± 0.045 | 0.9843 ± 0.004 | 0.853 ± 0.057 | 0.944 ± 0.018 | 0.667 ± 0.015
COc1ccc(CCCOC(Cn2ccnc2)c2ccc(OC)cc2)cc1 (stereo unspecified) | 1.003 ± 0.0061 | 0.515 ± 0.033 | 0.881 ± 0.22 | 1.04 ± 0.011 | 0.9993 ± 0.0092 | 0.154 ± 0.036
O=c1cc(O)cc(/C=C/c2ccc(O)c(O)c2)o1 [Hispidin] | 1.01 ± 0.011 | 0.9583 ± 0.0068 | 1.017 ± 0.0058 | 0.988 ± 0.0082 | 1.003 ± 0.0058 | 1.01 ± 0.01
CCN1CCC[C@H]1CNC(=O)c1cc(S(N)(=O)=O)ccc1OC [(S)-(-)-Sulpiride] | 1.01 ± 0.01 | 1.01 ± 0.015 | 0.884 ± 0.23 | 1.01 ± 0.01 | 1.023 ± 0.0058 | 1.027 ± 0.0058
CCN1CCC[C@H]1CNC(=O)c1cc(S(N)(=O)=O)ccc1OC [Levosulpiride] | 1.01 ± 0.013 | 0.9997 ± 0.0093 | 1.02 ± 0.011 | 0.998 ± 0.011 | 0.994 ± 0.014 | 1.004 ± 0.0098
N[C@@H](CCC(=O)N[C@@H](CSN=O)C(=O)NCC(=O)O)C(=O)O [S-Nitrosoglutathione] | 1.003 ± 0.0058 | 1.02 ± 0.025 | 1.02 | 1.04 ± 0.064 | 0.9933 ± 0.0035 | 1 ± 0.014
CCCNS(=O)(=O)Nc1ncnc(OCCOc2ncc(Br)cn2)c1-c1ccc(Br)cc1 [Macitentan] | 1.04 ± 0.01 | 1.02 ± 0.015 | 1.023 ± 0.0058 | 1.03 ± 0.017 | 1.007 ± 0.0058 | 1.002 ± 0.0068
CC(CCc1ccc(O)cc1)NCCc1ccc(O)c(O)c1 (stereo unspecified) [Dobutamine hydrochloride] | 1.013 ± 0.0058 | 0.99 ± 0.02 | 1.002 ± 0.0072 | 0.983 ± 0.008 | 1.002 ± 0.0072 | 1 ± 0.01
CCCCC#Cc1nc(N)c2ncn([C@@H]3O[C@H](C(=O)NCC)[C@@H](O)[C@H]3O)c2n1 | 1.01 ± 0.015 | 0.979 ± 0.011 | 1.007 ± 0.0058 | 1.01 ± 0.014 | 1.01 | 1.003 ± 0.0058
CC1=NN(c2ccc(C(=O)O)cc2)C(=O)C1=Cc1ccc(-c2cc(C)c(C)cc2[N+](=O)[O-])o1 | 0.973 ± 0.023 | 1.043 ± 0.0058 | 0.9843 ± 0.007 | 1.02 ± 0.015 | 1.001 ± 0.0081 | 0.995 ± 0.013
CC(C)(C)C#Cc1cc(N(C(=O)[C@H]2CC[C@H](C)CC2)[C@H]2CC[C@H](O)CC2)c(C(=O)O)s1 | 1.01 ± 0.015 | 1.03 | 1.02 ± 0.018 | 1.04 ± 0.01 | 1.01 | 1.017 ± 0.0058
COc1ccc(-c2cc3c(C)nc(N)nc3n([C@H]3CC[C@H](OCCO)CC3)c2=O)cn1 | 0.483 ± 0.014 | 0.231 ± 0.031 | 0.483 ± 0.024 | 0.307 ± 0.019 | 0.419 ± 0.012 | 0.0512 ± 0.027
O=c1[nH]c(=O)n([C@H]2C[C@H](O)[C@@H](CO)O2)cc1/C=C/Br [(E)-5-(2-Bromovinyl)-2'-deoxyuridine] | 1.013 ± 0.0058 | 1.01 ± 0.01 | 1.003 ± 0.0061 | 1.015 ± 0.0071 | 0.9783 ± 0.0055 | 0.9897 ± 0.0049
Cn1c(=O)c(F)c(Nc2ccc(I)cc2F)c2c(=O)n(C[C@@H](O)CO)cnc21 | 0.641 ± 0.035 | 0.629 ± 0.043 | 0.772 ± 0.028 | 0.757 ± 0.042 | 0.329 ± 0.013 | 0.226 ± 0.025
NC(=O)c1cccnc1 [Nicotinamide] | 1.01 ± 0.014 | 1.02 ± 0.012 | 1.01 ± 0.018 | 1.01 ± 0.018 | 1.006 ± 0.0085 | 1.013 ± 0.0082
NCc1c[nH]c(=S)n1[C@H]1CCc2c(F)cc(F)cc2C1 [Nepicastat (SYN-117) HCl] | 0.9937 ± 0.006 | 1 | 1.01 ± 0.022 | 0.98 ± 0.017 | 0.9937 ± 0.0085 | 0.9913 ± 0.0051
CNC1(C)C2CCC(C2)C1(C)C (stereo unspecified) [Mecamylamine hydrochloride] | 1.017 ± 0.0058 | 1.02 ± 0.026 | 1.017 ± 0.0058 | 1.07 ± 0.072 | 1.02 | 1.06 ± 0.046
Cc1c(Cn2c(C)nc3c(C(=O)O)cc(N4CCOCC4)cc32)cccc1C(F)(F)F | 0.897 ± 0.019 | 0.803 ± 0.036 | 0.892 ± 0.0085 | 0.874 ± 0.018 | 0.972 ± 0.018 | 0.943 ± 0.013
Nc1nc(Nc2ccc(S(N)(=O)=O)cc2)nn1C(=O)c1c(F)cccc1F | 0.953 ± 0.018 | 0.284 ± 0.052 | 1 ± 0.038 | 0.769 ± 0.061 | 0.791 ± 0.026 | 0.042 ± 0.0075
Cc1[nH]c(/C=C2\C(=O)Nc3ccc(S(=O)(=O)Cc4c(Cl)cccc4Cl)cc32)c(C)c1C(=O)N1CCC[C@@H]1CN1CCCC1 | 1.04 | 1.07 ± 0.015 | 1.033 ± 0.0058 | 1.063 ± 0.0058 | 1.002 ± 0.0068 | 0.993 ± 0.0061
